# The list shows a part of the results. At the low end of the ranking the order means little.
# Biological target: T1, GST-Rok-C97-191 (UniProt O34857)
# T1 sequence: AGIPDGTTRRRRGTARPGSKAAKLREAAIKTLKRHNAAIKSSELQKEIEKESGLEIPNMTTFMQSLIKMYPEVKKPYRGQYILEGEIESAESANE
# Test: protein binding microarray;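 further: rank score from −0.5 (least bound) to 0.5 (best bound)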
# Conditions: Rok is a gene silencer of Bacillus subtilis; high values mean tight binding; most listed sequences are background and not binding sites; double strand, one strand shown
row,Sequence,binding signal [E-score]
1,CCTGCGCA,-0.0436
2,AAATCTTA,0.124
3,ATTGTCAA,-0.133
4,CGCCCATC,-0.189
5,AATGGACC,-0.00673
6,ATGAGGAC,-0.0214
7,GAATGCAA,-0.0262
8,ACTCATCT,-0.0629
9,AGAGCCCA,-0.215
10,AACAGGGG,-0.0794
11,ACGGCCCA,-0.207
12,ACGGGTAA,0.0873
13,GGGTAACA,-0.0349
14,ACGGTTAT,0.165
15,CCCCGCAA,-0.255
16,CTGGTACA,0.267
17,ATGCCTCC,-0.303
18,ACGCGCAA,-0.0496
19,TGAGCGAA,0.0328
20,AATGAACA,0.135
21,ATGAGGGC,-0.132
22,CCGGGAGG,-0.276
23,GGACGTTA,-0.0528
24,CTGGCTAC,-0.178
25,AATCGGAC,-0.128

row,Sequence,binding signal [E-score]
1,CTTTATCC,-0.062
2,ACTGTGAG,0.139
3,AGTTGGTC,-0.205
4,CGCAAAGC,-0.29
5,GTCGAGCA,-0.0924
6,GGCCGAGA,-0.288
7,AAGGATCT,-0.124
8,AGTCCTGC,-0.192
9,ACGGGCAG,-0.281
10,ACGCCGAT,-0.0711
11,GCACAAAC,-0.0175
12,CGAAAAAG,-0.0409
13,GACAAAAA,-0.0639
14,AGACAATC,-0.00319
15,CTATTTTC,0.306
16,GATTGGAA,-0.158
17,CTACTTAA,0.387
18,AGCTATCC,0.0879
19,ATGCCGGA,-0.0636
20,ACCCACTC,0.0773
21,AGTACTTG,0.296
22,AGGTTATC,0.265
23,AATCACCA,-0.0157
24,ACAGTACG,0.0386
25,CACCATAC,-0.0719

row,Sequence,binding signal [E-score]
1,AAGGTTTC,-0.0614
2,TAGGATGA,0.0835
3,GGGAAGAA,-0.0777
4,CAGGCGGC,-0.327
5,GCTTCAGA,-0.332
6,CAGTGTAG,0.215
7,GCACACAC,-0.149
8,ACACAGAT,-0.0308
9,AGAAAGAT,0.227
10,AAATTTCG,0.14
11,AACTATAC,0.253
12,CAGGTGAG,-0.0457
13,ATTAGTCG,0.102
14,ACATCATC,-0.0643
15,GACCTAAA,-0.106
16,CGATGGGC,-0.132
17,GTGCACGA,-0.0372
18,GCAAGACA,-0.106
19,ACCTACTG,0.238
20,AGGACCGA,-0.168
21,AACAATAT,0.213
22,GACGGCAA,-0.139
23,GGCTCTAA,0.0743
24,ACCTAGGG,-0.0515
25,ACCCTGAG,-0.185

row,Sequence,binding signal [E-score]
1,AACCACCC,-0.103
2,AAAGTAGA,0.298
3,CACGTACG,-0.0431
4,GTCTTGAA,-0.321
5,CGTAGCAC,0.0655
6,AGTCTGGG,-7.1e-05
7,CCCATTAA,-0.208
8,CTGCTAAC,0.0377
9,CTAGTCAA,0.13
10,AAAATAGT,0.404
11,CGTGGACA,-0.191
12,CATAATAA,0.281
13,GGGACGAC,0.0648
14,CGCAAAAC,0.0693
15,ACAGTTCA,0.0612
16,ACGGTAGA,0.318
17,GATTGTAC,0.365
18,AACGTAGC,-0.0321
19,CTCGCTTC,-0.182
20,AAAACAGT,0.297
21,ACAAAGAT,-0.034
22,CTCGGTAA,-0.0167
23,AGCCCTAT,-0.0404
24,AATCTAAT,0.254
25,ACACACTA,0.211

row,Sequence,binding signal [E-score]
1,CGTGAATC,0.0549
2,TACTGTCA,0.16
3,ATAATAGC,0.259
4,ACAATACT,0.107
5,ATACTACA,0.388
6,CCCCTGAG,-0.271
7,GCGATACA,0.0374
8,AACCCAGG,-0.149
9,CCATGTTC,0.00686
10,GGAATATA,0.377
11,CTTCAACA,-0.103
12,CTAGATGC,0.0124
13,AGGTGCAT,0.0374
14,CTACCTTC,0.0707
15,CTTAAATC,-0.0598
16,AACTGTTG,-0.0852
17,ATACAGAT,0.168
18,GCTATCAA,0.168
19,GCAACAAC,0.0446
20,AACGTGTC,0.0055
21,GGCATCAA,-0.236
22,ATAAGGAG,0.0222
23,ACCCTGCA,-0.0879
24,GACGGAGC,-0.262
25,CATAGCTA,0.304

row,Sequence,binding signal [E-score]
1,CTTTGAAC,-0.0169
2,CTGTCTCA,-0.118
3,AATGCAGG,0.0503
4,CCTTGTTA,-0.147
5,GCCTGAAA,-0.0289
6,ACGAAGAG,-0.048
7,GGTCACTA,-0.0834
8,AGGTCATG,-0.0161
9,AAACCCTG,-0.212
10,AGTGCCAG,-0.235
11,TCTCAAAA,0.1
12,AGATGCCT,-0.203
13,CCTAACCG,-0.379
14,AAGACGGA,-0.0799
15,CGGGCAAG,-0.286
16,AGCAGCTC,-0.148
17,AATGCTCA,-0.15
18,GCCAGACA,-0.257
19,CCGGACTC,-0.122
20,AGCCTTCG,-0.302
21,GTGTGGAA,-0.0936
22,ACATACGG,0.126
23,GGCTCTCA,-0.362
24,CACGCGCC,-0.365
25,TTACGTAA,0.261

row,Sequence,binding signal [E-score]
1,GACGAATC,-0.0921
2,TATTGCAA,0.175
3,AAAACAAG,0.0357
4,CTATCCCC,-0.133
5,ATGTAACC,-0.106
6,AACTCAAA,0.05
7,TCCTGACA,-0.0157
8,AGTAAGAT,0.169
9,ATGGTACA,0.199
10,CGAGTGGC,-0.178
11,AGGTGCGG,-0.307
12,CTTTTAAC,0.0914
13,AGTCGTAA,0.125
14,AAAAATGT,0.129
15,ATCAACGC,-0.0258
16,GATAAAGC,-0.0584
17,TCTTTACA,0.0871
18,CAGTCGGA,-0.205
19,GATAGAGA,0.104
20,ATAGCAAG,0.0644
21,CTATGCGA,0.118
22,TATGAGAA,0.0666
23,CCTCTGTC,-0.166
24,AGTACGAC,0.074
25,CTCGAATC,-0.145

row,Sequence,binding signal [E-score]
1,ACCACCAA,-0.0739
2,ATATTCGC,0.0955
3,ACTTCCAT,-0.0388
4,GCCACCGC,-0.0587
5,CCTTTCAA,-0.171
6,TTCAGAAA,-0.153
7,GTACAGTA,0.283
8,AGCTCCCC,-0.277
9,ACGGAATC,0.187
10,AGATGGAC,-0.183
11,GCCAGCGA,-0.311
12,CCCCGGCA,-0.136
13,CGTCCGTA,-0.0633
14,CGGGGACA,-0.205
15,GGCGACCC,-0.372
16,CTTAACTC,0.118
17,CACGTACA,0.177
18,ATCGGAAA,0.048
19,ACGCGCTC,-0.0411
20,CATACACC,0.126
21,AAGGTAAG,-0.103
22,GATGGGCA,-0.171
23,ACAAGTGT,0.146
24,ACCGGTCT,0.064
25,AATCACTC,-0.00406

row,Sequence,binding signal [E-score]
1,ACAAGTGG,0.119
2,CAATTTTA,0.234
3,ATTTGTAG,0.311
4,ATCGAGAG,0.0367
5,ACGGCGGG,-0.134
6,CACCAGTG,-0.000289
7,GCTTTGGA,-0.076
8,ACGCCAGC,-0.105
9,AAAGTGCA,-0.0234
10,AGGCTGCA,-0.131
11,ACATTTGC,0.205
12,CAAACAAA,-0.186
13,CATGTGAC,0.0514
14,CCTAAGTA,0.0428
15,AGAATCGA,-0.163
16,ATGACGGG,-0.176
17,GGCGTCAC,-0.266
18,CACCCTAA,-0.0478
19,CAACGATG,-0.138
20,CCGTCATA,-0.0619
21,CTCAGCTC,-0.34
22,CGAATCCG,-0.0422
23,CTCATTTC,-0.0889
24,GGACACTA,0.00822
25,CATCAAGG,-0.316

row,Sequence,binding signal [E-score]
1,GTGGATCA,-0.0318
2,TCTCGTAA,-0.0374
3,CCCCCTAA,-0.209
4,GGCGCGTA,0.0908
5,ACTCAGAA,-0.0517
6,ATGAACCC,-0.206
7,CAGCAGCG,-0.131
8,GAGCTTTA,9.88e-05
9,AATGGGTA,0.181
10,AGGATGAA,-0.145
11,AGTTGACC,-0.0633
12,CATAATAG,0.136
13,CAAGCACC,-0.14
14,ATGCGCCG,-0.139
15,AAAGCGAC,-0.0243
16,ATCCTGTG,0.0425
17,ATGTTTTA,0.11
18,AAAATATT,0.327
19,AGCCATAA,0.127
20,CAAACATA,0.192
21,AGCTCCCG,-0.258
22,ATTCTTCC,0.0679
23,AGTCGTCG,-0.0572
24,GCTTGATA,0.104
25,CTTGAAAG,-0.00319

row,Sequence,binding signal [E-score]
1,AATTGAAC,-0.0536
2,GGACTAGA,0.118
3,CCATGACC,-0.229
4,CTAGACTC,-0.114
5,CGTCTCCC,-0.206
6,TCTTATAA,0.179
7,CTTAGGTA,0.121
8,ATACAATG,0.259
9,AATGCGGT,0.0639
10,AATAACGG,0.0506
11,CATGGTGC,-0.16
12,TCGTTTCA,-0.0845
13,ACCAAAAC,-0.044
14,CTAACACC,0.017
15,CACCTTCC,-0.284
16,AAGCTAAG,-0.182
17,CGAGGCAA,0.0333
18,CAGCGCGA,0.167
19,GGTGTGAA,-0.134
20,AATCGTAG,0.166
21,ACCCTACG,-0.0398
22,ACTTTTTA,0.167
23,AGGTCTGC,-0.0668
24,GCTTCATA,-0.054
25,CTGACCCA,-0.0521

row,Sequence,binding signal [E-score]
1,ATCTGAGG,-0.13
2,GCATAGAA,0.105
3,GTGTCGGA,-0.109
4,ACTCTGCC,-0.189
5,GAAATCTA,0.383
6,GACTGAGA,-0.13
7,AGCATTTA,0.102
8,ATAACGAA,0.263
9,CAGCAAAA,-0.224
10,GAACTGTC,-0.0656
11,AGATCTTG,0.183
12,GAGGACGC,-0.276
13,ACTGCTCT,-0.185
14,CGTGGGCA,-0.271
15,ACCTGTCT,-0.0209
16,AATGTTAT,0.181
17,ATGTGAAG,0.221
18,AACCTCCA,-0.174
19,GTGTGTCA,-0.00182
20,CCAGGACA,-0.19
21,AACGCGCC,-0.193
22,CGCAGGTA,0.0863
23,AGAGGAAC,-0.0699
24,ACCTAGCA,0.03
25,CCCGGCTC,-0.226

row,Sequence,binding signal [E-score]
1,ACGAAAGT,0.208
2,ACTGGCCG,-0.0305
3,AGCGGGCC,-0.341
4,AGTCTTCG,-0.016
5,GCAACTGC,-0.302
6,ATGTCTCC,-0.0346
7,CTCGCTGA,-0.146
8,GACTAGGC,-0.149
9,AAGAGCGG,-0.271
10,CGAAGCCA,-0.0573
11,CAGATGCC,-0.277
12,ATTACCTC,0.136
13,CAAAGGTC,-0.219
14,ACCCAATC,-0.121
15,AACCATTA,0.192
16,GCCATTAC,0.0845
17,GCGAACGC,-0.274
18,GCAGCCGC,-0.228
19,ACGAACGA,-0.222
20,CCTTTTGA,-0.0836
21,CGAATACA,0.242
22,CCACACGC,-0.0316
23,ACCTTATA,0.0173
24,AAAGCAGT,-0.16
25,CGGCCGAG,-0.169

row,Sequence,binding signal [E-score]
1,TAGTCGCA,0.00372
2,GTTCCAGA,-0.0546
3,AGTATGCA,-0.0313
4,CACACCTG,-0.125
5,GCATACTA,0.241
6,CCCGCCGA,-0.0717
7,CCACCACC,-0.0918
8,TATAACAA,0.0846
9,CGCCACCG,-0.0411
10,CGATAGGC,0.0441
11,ATTTAGTG,0.0465
12,CCTGTGAG,-0.174
13,AATTGAGG,0.00998
14,ACAATCTA,0.281
15,CTCGAGGA,-0.0254
16,AGAACTGA,0.202
17,ATAAAGAT,0.163
18,AAATCAGC,0.000954
19,ACCCAAGG,-0.304
